Read counts are not given, so values of variants with three or more changes are uncertain.
B1: LINE1-mini (parent)
chain: GGCAGAGCUCAACACAGCGUGGCAAAGUGGCUGUGGCUAGACUGCC

Variants of: B1
Test: self-cleavage, relative activity (ratio to wild type); higher = more cleavage; in vitro, sequencing; the parent is a self-cleaving ribozyme

| Variant | self-cleavage |
| --- | --- |
| GGCAGAGAUCAACACAGCGUGGCAAGGUGGAUGUGGAUAGACUGCC | 0.04 |
| GGCAGAGAUCAACACCGUGUGGUAAAGUCGCUGUGGCUAGACUGCC | 0.1 |
| GGCAGAGAUCAACUCAGCGCCGCAAAUUGGCUGUGGCUCCACUACC | 0.01 |
| GGCAGAGAUCAACUCAGCGUGGCAAAGUGGCUGUGGCUAAACUGCC | 0.25 |
| GGCAGAGAUCAACACAGCGUGGCAAAGUGGCUGUGGCUAGCCUGCA | 0.09 |
| GGCAGAGAUCAACACAGCGUGGCGAAGUGGCUCUGGCUAGAUUGCC | 0.1 |
| GGCAGAGAUCAACUCAGCGUCGCAAAGUGGCUGUGGCUAGACUGCC | 0.08 |
| GGCAGAGAUCAAGGCAGCGUGGCAAAGUGGCUGUGGCUAGACUGCC | 0.18 |
| GGCAGAGAUGAACACAGCGUGGCAAAGUGGCUGGGGCUAGACUGCC | 0.02 |
| GGCAGAGAUGAAUACAGCGUGGCAAAGUGGCUGUGGAUAGACUGCC | 0.01 |
| GGCAGAGAUCAACACUGCGUGGCUAAGUGGCUGUGGCUAUACUGCC | 0.04 |
| GGCAGAGAUCAAAACUGCGUGGCAAUGUGGCUGUGGCUAGCCUGCC | 0.07 |
| GGCAGAGAUCAACGCAGCGUGGCAAAGUGGCGGUGGCUAGACUACC | 0.39 |
| GGCAGAGAUCAACACAGCGUGGCAAUGUGGCUGUGGCUAGCCUGCC | 0.35 |
| GGCAGAGAUAAACACAGCGUGGCAAAGUGGCUUAGGCUAGACUGCG | 0.02 |
| GGCAGAGAUCAACACAGCGUGGCAAAGUGGCUGUGGCUAGCGUGCC | 0.39 |
| GGCAGAGAUCAACACAGCGUGGCAAAGUGGCUGUGGCUAGCAUGCC | 0.15 |
| GGCAGAGAUCAACACAGCGUGGCGAAGUGGCUGUGGUUAAACUGCA | 0.08 |
| GGCAGAGAUAAACACAGCGUGGCAAAGUCGCUGUGGCUUGACUGCC | 0.01 |
| GGCAGAGAUCAACACCCCGUGGCAAAAUGGCUGUGGCUAGACUGCC | 0.17 |
| GGCAGAGAUCAACACAGCGUGGCAAAGUGGCUGUGGCUUUACUGCC | 0.31 |
| GGCAGAGAUCAACACAGCGUGGCUAAGUGGCUGUGGCUUGACUGCC | 0.1 |
| GGCAGAGAUGAACCCAGCGUGGCAAAGUGGCUGUGGCUAGACUGCC | 0.03 |

| Variant | self-cleavage |
| --- | --- |
| GGCAGAGAUCAACACAGCGUGGCACAGUGGCUCUGGCUAGACUGCC | 0.05 |
| GGCAGAGAUCAACUCUGCUUGGCAAAUUGGCUGUGGCUAGACUGCC | 0.08 |
| GGCAGAGAUCAAAACAGGGCGGCAAAGUGGCUGUGGCUAGACUGCC | 0.13 |
| GGCAGAGAUCAACUUAGCGUGACAAAGUGGCUGUGGCUAGACUGCC | 0.14 |
| GGCAGAGAUUAACACAGCGUGGCAAAGUGGCUGUGGUUAAACUGCC | 0.02 |
| GGCAGAGAUCAACGCAGCGUGGCAAAGUGGCUGUGGCUAUACUGCC | 0.1 |
| GGCAGAGAUCAACUCAGAGUGGCAAAGUGUCUGUGGCUAGACGGCC | 0.62 |
| GGCAGAGAUCAAGACGGCGUGACAAAGUGGCUGUGGCUAGCCAGCC | 0.01 |
| GGCAGAGAUCAACACUGCGUGGCAAAGUGGCUGUGGCUAAACUGAC | 0.03 |
| GGCAGAGAUCAACACAGCGUGGCAUAGUGGCUGUGGAUAGACUGCC | 0.12 |
| GGCAGAGAUCAACCCAGCGUGGCAAAGUGGCUUUGGAUCGGCUGCC | 0.03 |
| GGCAGAGAUCAACACAGCGUGGCACAGUGAGUGUGGCUAGACUGCC | 0.28 |
| GGCAGAGAUUAACACAGCGAGGCAAAGUGUCUGUGGCUAGACUGCC | 0.04 |
| GGCAGAGAUGAACACAGCGUGGUAAAGUCGCUGUGGGUAGACAGGC | 0 |
| GGCAGAGAUGAACACAGCGUGGCAAACUGGAUGUGGCUAGACUGCC | 0.03 |
| GGCAGAGAUCAACACAGCGUGGCAACCUGGCUGUGGCUAGACUGCC | 0.02 |
| GGCAGAGAUCAAAACAGCGUGGAUAAGUGGCUGUGGCUAGACUCCC | 0.15 |
| GGCAGAGAUCAACACCGCGUGGCAAAAUGGCUGUGGCUAGACUGUC | 0.18 |
| GGCAGAGAUCAACACAGCGUGGCCAAGUGGCUGUGGCUAGAGUGCC | 0.13 |
| GGCAGAGAUUAACACAGCGUGGGAAAGUGGCUGUGGCUAGACUGCC | 0.04 |
| GGCAGAGAUCAACACAGCGUGGCUAAGUGGCUGUGGGUAGACUGCC | 0.14 |
| GGCAGAGAUAAACACAACGUGGCAAAGUGGCUGUGACUAGACUGCC | 0.04 |
| GGCAGAGAUCAACACUGCAGGGCAAAGUGGCAGUGGCUAGACUGCA | 0.1 |

| Variant | self-cleavage |
| --- | --- |
| GGCAGAGAUAAACACAGCGUGGCAAUGUGGCGGUGGCUAGACUGCC | 0.03 |
| GGCAGAGAUUAUCACAGCGUGGCAAAGUGGCUGUGACUAGACUGCC | 0.02 |
| GGCAGAGAUAAACAGAGCGUGGCAAAGUGGCUGUUGCUAGAUUGCC | 0.02 |
| GGCAGAGAUCAACUCAGCGUGGCAAAUUGGCUGUGGCUAGACUUCC | 0.05 |
| GGCAGAGAUCAAAACAGGGUGGCACAGGGGCUGUGGCUAGACUGCC | 0.16 |
| GGCAGAGAUGAACAAAGCGUGCCAAAGUGGCUGUGGCUAGACUGCC | 0.01 |
| GGCAGAGAUAAACACAGCGUGGCAAAGUGGCUGUGGCUAGACGGCC | 0 |
| GGCAGAGAUCAACCCAGCUUGGCAAAGUGGCUGUGGCUAGACUGCC | 0.04 |
| GGCAGAGAUCAACACAGCGUGGCACAGUGGUUGUGGCUAGACUGCC | 0.16 |
| GGCAGAGAUCAACACCGCGUCUCAAUGUGGCUGUGGCUAGACUGCC | 0.04 |
| GGCAGAGAUCAACACAGCGUGGCUAAGUGGGUGUGGCUUGACUGCC | 0.18 |
| GGCAGAGAUCAACGCAGCGUGGCAAAUUGGCUAUGGCUAGUCUGCC | 0.16 |
| GGCAGAGAUCAACACGGCGUGGCAAAGUUGCUGUGGCUAGACUGCC | 0.11 |
| GGCAGAGAUCAACACAGCGUGGCCAAGUUGCUGUGACUAGACUGCC | 0.04 |
| GGCAGAGAUGAACACAGCGUGGCAAAGUGGCUGUGGCUAGACUGGC | 0.01 |
| GGCAGAGAUCAAAACAGCGUGGCAAAGUGGCUGUGGCUAUACUGCA | 0.03 |
| GGCAGAGAUCAAAAUAGCGUGGCAAAGUGGCUGAGGCUAGACUGCC | 0.02 |
| GGCAGAGAUCAACACUGCGUGGCAAAGUGGCUGUGGUUAGACUGCC | 0.12 |
| GGCAGAGAUCAACGCAGCGUGGCAAAGUGGUUGUGGCUAGACUGCC | 0.04 |
| GGCAGAGAUAAACACCGCGUGGCAAAGUGGCUGUGGCUAGACUGCC | 0.02 |
| GGCAGAGAUCAACCCAGCGUGGCAACGUUGCUGUAGCGAGACUGCC | 0.01 |
| GGCAGAGAUCAACUCCCCGUGGCGAAGUGGCUGUGGCUAGACUGGC | 0.22 |
| GGCAGAGAUUAACACAGCGUGGCAAAGUGGGUGUGGCUAGACUGCC | 0.03 |

| Variant | self-cleavage |
| --- | --- |
| GGCAGAGAUCAACACCGCGCGGCAAAGUGGCCGUGGCUAGACUGCC | 0.09 |
| GGCAGAGAUCAACACGCCGUGGCAAAGUGUCUGUGCCUAGACUGCC | 0.14 |
| GGCAGAGAUCAACACCGCGUGUCCAAGUGGCUGUGGAUAGACUGCC | 0.06 |
| GGCAGAGAUCAACCCAGUGUGGCAAAGUGACUGUGGCUAGACUGCC | 0.12 |
| GGCAGAGAUCAACACAGCGUGGCAAGGUGGCUUUGGUUAGACUGCC | 0.16 |
| GGCAGAGAUCAACACAGCGUGGCGAAGUGGGUGUGGCUAGACUGCC | 0.21 |
| GGCAGAGAUCAACACAGCGUGGCAAGGUGGCUGUUGCUAGACUGCC | 0.29 |
| GGCAGAGAUGAACACAGGGUGGCAAAGUGGCUGUGGCUAGUCUGCC | 0.01 |
| GGCAGAGAUCAACUCAGCGUGGCAAAGUGGCGCUGGCUAGACUGCC | 0.12 |
| GGCAGAGAUAAACACAGCGUGGCAAAGUGGCUGUUGCUAGACUGCC | 0.05 |
| GGCAGAGAUCAACCGAGCGUGGCACAGUGGCUGUGGCUAGGCUGCC | 0.06 |
| GGCAGAGAUCAACACAGCGUGGCUAAGUGGCUGUGGCUAGACUCCC | 0.09 |
| GGCAGAGAUCAAGACAGCGUGGCAAUGUGGCUGUGGCUAGACUGCC | 1.36 |
| GGCAGAGAUCAACACAGCGUGGCAAAGUGGCUGUGGCUAGGCUGAC | 0.27 |
| GGCAGAGAUUAUCACAGCGUGGCAAAGUGGCUGUGGUUAGACUGCC | 0.01 |
| GGCAGAGAUCAACACAGCGUGGCCAAGUGGCUUUGGCUAGACUGCC | 0.19 |
| GGCAGAGAUCAACGCAGCGUGGCAAAGUGGCUGUGGCUAGAGUGCC | 0.22 |
| GGCAGAGAUCAACUCAGCGUGGCAAAGUGGCUGUGGCUAGACUGGC | 0.35 |
| GGCAGAGAUCAACUCAGCGUGGCAAAGUGGCUGUGGCUAGACUGUC | 0.1 |
| GGCAGAGAUCAACACCGCUUGGCAAAGUGGCUGUGGCUAGAAUCCC | 0.11 |
| GGCAGAGAUCAACACAGCGUGGCAAUGUGGCUGUGGCUAUACUGCG | 0.16 |
| GGCAGAGAUCAACGCAGCAUGGCAAAGUGGCAGUGGCUAGACUGCC | 0.03 |
| GGCAGAGAUUAACAUAGCGUGGAACUGUGGCUGUGGCUCGCCGGCC | 0.07 |

| Variant | self-cleavage |
| --- | --- |
| GGCAGAGAUAAACACAGCGUUGCCAAAUGGCUUUGGCAAGACUGCC | 0.01 |
| GGCAGAGAUCAACACAGCGUGGCAAGGUGGUUGUGGCUAGACUGCC | 0.09 |
| GGCAGAGAUCAACACCGCGUGGCAAAGUGGCUGUGGCUAGACUACC | 0.22 |
| GGCAGAGAUCAACACAGCGUGGCACAGUGGCUGUGACUAGACUGCC | 0.56 |
| GGCAGAGAUCAACCCAGAGUGGUAAAGUAGCUGUGGCAAGACUGCC | 0.05 |
| GGCAGAGAUUAACACAGCGUGGCAAAGUGGAUGUGGCUAGACUGCA | 0.09 |
| GGCAGAGAUCAAAACAGAGUGGCAAAGUGGCUAUGGCUAGACUGCC | 0.14 |
| GGCAGAGAUCAACACAGCGUGGCAACGUGGCUGUGGCUAGCCUGCC | 0.33 |
| GGCAGAGAUCAACACAGCGUGGCUAAGCGGCUGUGGCUAGACUGCC | 0.14 |
| GGCAGAGAUAACCACAGCGUGGCAAAGUGGCUGUGUCUAGACUGCC | 0.06 |
| GGCAGAGAUCAACACCGCGUGGCAAAGUGCCUGUGGUUAUACUGCC | 0.27 |
| GGCAGAGAUCAAAACAGCAUGGCAAAGUGGCUGUGGCUAGACUGCC | 0.22 |
| GGCAGAGAUAAACACAGCGUGGCAAAGGGGCUGUGACUAGACUGCC | 0 |
| GGCAGAGAUCAACACGUCGUGGCAAAGUGGCUGUGGCUAGACUGCC | 0.23 |
| GGCAGAGAUAAACACAGCGUGGCACAGUGGCUGUGGCUAGACUGCC | 0.01 |
| GGCAGAGAUAAACACAGCGUGGCAAAGUGGCUGUGGCUAAACUGGC | 0.01 |
| GGCAGAGAUCAACACAGCGUGGCACAGUGGAUGUGGCUAGAGUGCC | 0.38 |
| GGCAGAGAUCAAAACGGCGUGGCAACGUGGCCGCGGCUAGACUGCC | 0.03 |
| GGCAGAGAUCAAAACAGGGUAGCAAAGUGGCUGUGGCUAGACUGUC | 0.14 |
| GGCAGAGAUCAACACGACAUGGCAAAGUGGCUGUGGCUAGACUGCC | 0.1 |
